This is one part of the list. At the low end of the ranking, values are background and their order means little. The protein was read in a cell extract, so binding may be indirect.
Target: T1, HNF4alpha8 (COS-7 nuclear extract) (UniProt P41235-5)
T1 sequence: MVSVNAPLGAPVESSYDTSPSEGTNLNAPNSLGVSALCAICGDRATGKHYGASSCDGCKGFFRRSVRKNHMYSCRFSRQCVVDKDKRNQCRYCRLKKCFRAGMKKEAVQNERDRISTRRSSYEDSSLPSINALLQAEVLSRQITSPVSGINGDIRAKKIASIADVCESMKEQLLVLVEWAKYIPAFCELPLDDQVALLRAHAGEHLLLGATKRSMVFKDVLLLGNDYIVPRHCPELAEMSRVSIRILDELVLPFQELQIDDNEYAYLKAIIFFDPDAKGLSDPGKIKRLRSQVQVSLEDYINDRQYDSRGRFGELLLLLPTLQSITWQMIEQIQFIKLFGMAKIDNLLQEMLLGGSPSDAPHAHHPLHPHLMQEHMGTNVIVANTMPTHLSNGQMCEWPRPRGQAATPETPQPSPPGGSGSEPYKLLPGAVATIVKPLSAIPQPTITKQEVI
Assay: protein-binding microarray
Settings: COS-7 nuclear extract on double-stranded Agilent 4x180k PBM; binding buffer, salt, pH and temperature not given; high values mean tight binding; double strand, one strand shown; sequences stand for … in …GCCTAGGGAGATTAGAGTATCGGTCGA

Q: Which binding signal (log2 normalized intensity) does the source give for AGGACTCAATGATACCATCAGATACCTACT here?
A: -1.34

Q: With GGTTTATTTTTATCTGTTTATTTTGCAATT as the sequence, how does the binding signal (log2 normalized intensity) read?
A: 1.33

Q: ACACCGTCCAGAGGCTCCAAAGGACACTCC was tested. Which binding signal (log2 normalized intensity) did it give?
A: -1.28

Q: For AGGGAGGCCTAGACACAGACTCAAGTGAGG, which binding signal (log2 normalized intensity) is on record?
A: -1.31

Q: ACACAGGCGACCTTCGCTCGGCTCGCTCTC was tested. Which binding signal (log2 normalized intensity) did it give?
A: 2.9

Q: Which binding signal (log2 normalized intensity) does the source give for ATGGCTGAGCTGTAAGGACATAAGCACTGA here?
A: -1.35

Q: For GGAGGAGACAGCTACGGAATGCTTCCTGGA, which binding signal (log2 normalized intensity) is on record?
A: -1.42

Q: How did the binding signal (log2 normalized intensity) turn out when GTCTCAAAGTTCACCACTTTTGCAATGTTT was run?
A: 1.92

Q: With TGCTCGGAACACGAGGTGAGAGGCGGAACA as the sequence, how does the binding signal (log2 normalized intensity) read?
A: 0.629

Q: For GTAAAGGTGGTTTGGGTAATAACATGTAAT, which binding signal (log2 normalized intensity) is on record?
A: 1.35

Q: For GGGTGCCTGATAATGACTCTTGAACCACAG, which binding signal (log2 normalized intensity) is on record?
A: 1.58

Q: How did the binding signal (log2 normalized intensity) turn out when TTCTTTGTACCGTATTTCAGACCACCCAGT was run?
A: 2.4

Q: For AGGTCAAAGTGCAACTACAAGGAGCAGCCT, which binding signal (log2 normalized intensity) is on record?
A: 4.08

Q: How did the binding signal (log2 normalized intensity) turn out when TTGACCTTCAGCATCTTCAACTGTGTGAGC was run?
A: 2.59

Q: GAAATGGGACCCAACTTTTGCTCTCTGGGA was tested. Which binding signal (log2 normalized intensity) did it give?
A: -1.3

Q: How did the binding signal (log2 normalized intensity) turn out when TTCCCTAAGATTCTGGTCAAAGGTCAATGA was run?
A: 8.22

Q: GACCTAGGTGAGCAGGCAGAGGTCAATGTC was tested. Which binding signal (log2 normalized intensity) did it give?
A: 3.65

Q: Which binding signal (log2 normalized intensity) does the source give for TTGCACCTGGGCTGGAAAGGCCACCACAAA here?
A: -1.35

Q: For ACAGTTTTGTGTGTTTAATGTTTTCATTCT, which binding signal (log2 normalized intensity) is on record?
A: 1.81

Q: For TGGGACCAAAGGTGAAGGGGTCACCTCGCT, which binding signal (log2 normalized intensity) is on record?
A: 3.63

Q: How did the binding signal (log2 normalized intensity) turn out when GAAAGCAAGGGCCAGATCAAAGGCTTCTAG was run?
A: -1.36

Q: Which binding signal (log2 normalized intensity) does the source give for TCCGGGCGATCCGGGCTCCGGGCGCCGCGC here?
A: -1.21

Q: CACAAAGCTTGGGTTCACATTCCAGCTCTG was tested. Which binding signal (log2 normalized intensity) did it give?
A: 0.776

Q: For TCTTCGAAGACACAAAGCTTGGGTTCACAT, which binding signal (log2 normalized intensity) is on record?
A: 2.32

Q: Which binding signal (log2 normalized intensity) does the source give for ACTTATCTCAGCCTGGCTAAAACCCTGGCC here?
A: -1.45

Q: How did the binding signal (log2 normalized intensity) turn out when ACACACACACACACAGCTTGGAGCTCCTTG was run?
A: -1.28

Q: For GTCGCTTGCCAGTATGCCACTGGTTAGTTC, which binding signal (log2 normalized intensity) is on record?
A: 0.782

Q: Which binding signal (log2 normalized intensity) does the source give for GCTGCCAAACTGCCCAGCAGAAAAGCTGTA here?
A: -1.3

Q: How did the binding signal (log2 normalized intensity) turn out when CCCAGGTCACCCACAACCTACCCTTTGCCC was run?
A: 4.78

Q: Which binding signal (log2 normalized intensity) does the source give for GGCATTTCACAGAGCAAGGGTCCAGATTAG here?
A: 3.07

Q: With CAGGGAATGAGAATGGCCAGAGTTCCTGTG as the sequence, how does the binding signal (log2 normalized intensity) read?
A: -1.22

Q: For CCTTCATGTTTTCACCAAGAGGGAAAAGAT, which binding signal (log2 normalized intensity) is on record?
A: -0.605

Q: With GGGCCCTCTTCCAGCTGAGACAAGGTCCAG as the sequence, how does the binding signal (log2 normalized intensity) read?
A: 2.29

Q: ATGATCTTGCTCTCTTGTGCTCATGACAAA was tested. Which binding signal (log2 normalized intensity) did it give?
A: 0.645

Q: For ATCTGACCTTTGGGACATTCCCCAGGCTGC, which binding signal (log2 normalized intensity) is on record?
A: 3.59

Q: Which binding signal (log2 normalized intensity) does the source give for AGTCTTAACCTCCTCTGTCACGATTCTTTT here?
A: 1.1

Q: AACAGACAAATGAAAGAGCTCAAATGACAG was tested. Which binding signal (log2 normalized intensity) did it give?
A: -1.19

Q: How did the binding signal (log2 normalized intensity) turn out when TCCTGATCTTTGACCTGGAGCATGACCCTT was run?
A: 5.6

Q: CTCGGGTGTTCACAGGTGACCTCTGGCCAC was tested. Which binding signal (log2 normalized intensity) did it give?
A: 5.07

Q: For GGGAGATAAGGCCCGGCTGATGGGACCAAA, which binding signal (log2 normalized intensity) is on record?
A: -1.33

Q: Which binding signal (log2 normalized intensity) does the source give for AACTCTCTGTGGATGTATGTCCAGATAACT here?
A: 0.578

Q: CATTTGAGTACATGCCTCTCCCAGTGGAAT was tested. Which binding signal (log2 normalized intensity) did it give?
A: 1.27

Q: How did the binding signal (log2 normalized intensity) turn out when TAACAAAAATATCACAATCCTTAAGCAGCA was run?
A: -1.29

Q: For TCAACTTTCAACATTTAACTTAACCACTCA, which binding signal (log2 normalized intensity) is on record?
A: 0.333

Q: How did the binding signal (log2 normalized intensity) turn out when CTGGCTGCCCTGGGGATCAAAGCGTATGGG was run?
A: -1.35

Q: Which binding signal (log2 normalized intensity) does the source give for CCTGCCTCAGGCCGACCCCTGCCTGGACTG here?
A: 2.86

Q: Which binding signal (log2 normalized intensity) does the source give for CCTCCAGCTCTTGGGGAACAATCGCCACTG here?
A: -1.32

Q: For CAAATAGACTGGTTTGCACAGGTTACACAG, which binding signal (log2 normalized intensity) is on record?
A: -1.09

Q: How did the binding signal (log2 normalized intensity) turn out when AGTTCAATTTCCAACAAATGAAACTAAAGG was run?
A: -0.972

Q: How did the binding signal (log2 normalized intensity) turn out when TGGGCAATGTCAACAAATACTGACCTGAGA was run?
A: 1.59

Q: With TAACTCCCCCTTCATCTGGGACGTGGCTCA as the sequence, how does the binding signal (log2 normalized intensity) read?
A: 1.34

Q: For AGCGAGTAAGGCCCGTGAGATTGAAAGCTA, which binding signal (log2 normalized intensity) is on record?
A: -1.39

Q: GAGGAATTTGGACTTTTACTCTTAGAGATA was tested. Which binding signal (log2 normalized intensity) did it give?
A: 3.83

Q: Which binding signal (log2 normalized intensity) does the source give for CCCCCTGTGATTACTTCCACTCTTGCAGAT here?
A: 0.911

Q: Which binding signal (log2 normalized intensity) does the source give for TATCTTCTGCTTTCAAAGCTCCAGTTCCAG here?
A: -1.34

Q: Which binding signal (log2 normalized intensity) does the source give for TATCAGTATCAATGAGATCTCCCCACATTC here?
A: 1.14

Q: With AAAGATGTTTAAATAGTGATAATGGATGGC as the sequence, how does the binding signal (log2 normalized intensity) read?
A: 0.702

Q: TGAGATACCACGTATCTTTCAGATCCCTTG was tested. Which binding signal (log2 normalized intensity) did it give?
A: -1.35

Q: GTCACTTCTGCTGCATTCTATTGGTCAAAG was tested. Which binding signal (log2 normalized intensity) did it give?
A: 1.44

Q: CTTGTCTAAAAACATTGTGGAGCTCATGTA was tested. Which binding signal (log2 normalized intensity) did it give?
A: 1.25

Q: How did the binding signal (log2 normalized intensity) turn out when CTAAACCTCTGCACACAGGATGTTTTCTCT was run?
A: -1.33

Q: How did the binding signal (log2 normalized intensity) turn out when AGGAGGGGACTTCAAAGGCTCCCCTAATCC was run?
A: -1.26

Q: For TTTTCTTTTGGCATCTGTTGCTCAAGGAGG, which binding signal (log2 normalized intensity) is on record?
A: 0.983

Q: How did the binding signal (log2 normalized intensity) turn out when TTTGGGAACCGTTAGCAACCGGAAGTGGCT was run?
A: -1.2

Q: Which binding signal (log2 normalized intensity) does the source give for AAGGCAGGCAGCATGGAATGACTTTGGGGA here?
A: -1.36

Q: With GAAGGGAAGCTCTGGGAGTGCCCTTGCCGA as the sequence, how does the binding signal (log2 normalized intensity) read?
A: -0.148

Q: TATTTAGACTCAGCATGTCTTCTGACCTTT was tested. Which binding signal (log2 normalized intensity) did it give?
A: 7.33

Q: How did the binding signal (log2 normalized intensity) turn out when AGCAATCTTGAGGTTTCCACTGATAAAGTT was run?
A: 0.569

Q: Which binding signal (log2 normalized intensity) does the source give for GACCTTTATATGTCCACCTTATCTAATGCC here?
A: 2.22

Q: How did the binding signal (log2 normalized intensity) turn out when AGACTTCAAAGCATTCCACATTCTCCACTG was run?
A: -1.45

Q: GGAGAGCTGGACTTTCATCTGAGTCTCAGC was tested. Which binding signal (log2 normalized intensity) did it give?
A: 2.59

Q: How did the binding signal (log2 normalized intensity) turn out when AAAGGCGTTTGCTCCCATCCCCCCAAAGGC was run?
A: 5.12

Q: With AGAACTATCAAACATTTTTGCAACATGAGG as the sequence, how does the binding signal (log2 normalized intensity) read?
A: 0.388

Q: How did the binding signal (log2 normalized intensity) turn out when CCCTCTCCTTTGGTGCAAATACCATCCCCA was run?
A: 3.41

Q: With TGCTGCCGCATTTTCCTTTGTTGGTTTTGC as the sequence, how does the binding signal (log2 normalized intensity) read?
A: 0.648

Q: Which binding signal (log2 normalized intensity) does the source give for TGACCCCAGGGGAAACTCCATTTCCTTCTA here?
A: 1.11

Q: For GTCTTAGTATTAACGGTGAGGGAGGAGACT, which binding signal (log2 normalized intensity) is on record?
A: -1.21

Q: How did the binding signal (log2 normalized intensity) turn out when ACCCTGTTTTGTAAACTCCCTTTGATGCGG was run?
A: 0.325

Q: TGATGCATCAGACCCCTGAGTTTCGCAGCT was tested. Which binding signal (log2 normalized intensity) did it give?
A: 1.71

Q: How did the binding signal (log2 normalized intensity) turn out when GGTGAGCTTTTATCTTAAGTGAGGTGGAAA was run?
A: 1.04

Q: How did the binding signal (log2 normalized intensity) turn out when AAACCAAACTGCAGCTGCTGCACTGATAAG was run?
A: -1.44

Q: For AAAAGGGGACCGGCCTTTCCCGGCTGCCTA, which binding signal (log2 normalized intensity) is on record?
A: -1.34

Q: For AGAGGCAAGGAAAGATAAATAGTGACAAAT, which binding signal (log2 normalized intensity) is on record?
A: -1.34

Q: How did the binding signal (log2 normalized intensity) turn out when GAATCAATGCCTGATTCCAAAGTCCACTTT was run?
A: 7.71

Q: For CTCTCATTGGAATGAGCCTCCTGAAGATCC, which binding signal (log2 normalized intensity) is on record?
A: -1.29

Q: How did the binding signal (log2 normalized intensity) turn out when TGACCCCTAGCACTTCCCGAGTGAGGCAAT was run?
A: 2.07

Q: For CGAAATGGGGATAAACACCCCCATCTATGC, which binding signal (log2 normalized intensity) is on record?
A: 1.38

Q: For TGCTGATTACATAGGAGGCTGCCTCTCTGT, which binding signal (log2 normalized intensity) is on record?
A: -1.31

Q: Which binding signal (log2 normalized intensity) does the source give for ACATTTTACAACCTATTCTCTCTGAGGGCT here?
A: -1.26

Q: CCTCTCTCTCTCTCTCTCACACACACACAC was tested. Which binding signal (log2 normalized intensity) did it give?
A: 1.81

Q: For GAGCTCAAATGACAGAACAGTCCAGAGATT, which binding signal (log2 normalized intensity) is on record?
A: -1.21

Q: AGGTAAGTACCAATATTTGTTAAGTACCCA was tested. Which binding signal (log2 normalized intensity) did it give?
A: 0.424

Q: Which binding signal (log2 normalized intensity) does the source give for AAGTTAACCCCATCACCCATGTGCAGGCAA here?
A: 2.44

Source: article PMC10726135
